Source: patent US9833497B2, “Human originated EGF domain proteins and use of the same” (CHENGDU SOURCEBIO LIMITED-LIABILITY COMPANY, priority 2013, dated 2017)

Tests used:
Assay type in all cases: cell-based
E. coli DH5α = experiment: Antibacterial activity: MIC and growth curve against E. coli DH5α in 96-well plate; conditions: minimal inhibitory concentration against E. coli DH5α, 5×10^5 CFU/mL, 37° C., judged after 8 h
In short: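 MIC taken as lowest protein level with no bacterial growth, tracked by A600 every 30 min during 37 °C, 175 rpm culture. Two-fold protein series 50-12.5 μg/mL final, triplicate wells, against 5×10^5 CFU/mL of LB-washed mid-log cells.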

E. coli BL21 = experiment: MIC against Gram-negative bacteria: E. coli BL21; conditions: for MIC / MIC (μg/mL) E. coli BL21: E. coli BL21
In short: (§1)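 Read-out is absence of bacterial growth, with MIC set at the lowest recombinant protein concentration achieving it. Bacteria, pre-grown in LB to McFarland 0.5 and resuspended, were exposed at 5×10^5 CFU/mL to two-fold diluted human EGF domain proteins in triplicate at 37° C, 175 rpm.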

Pseudomonas aeruginosa = experiment: MIC against Gram-negative bacteria: Pseudomonas aeruginosa; conditions: for MIC / MIC (μg/mL) P. aeruginosa: P. aeruginosa
In short: as §1

Klebsiella pneumonia = experiment: MIC against Gram-negative bacteria: Klebsiella pneumonia; conditions: for MIC / MIC (μg/mL) K. pneumonia: K. pneumonia
In short: as §1

Enterobacter cloacae = experiment: MIC against Gram-negative bacteria: Enterobacter cloacae; conditions: for MIC / MIC (μg/mL) E. cloacae: E. cloacae
In short: as §1

Aeromonas hydrophila = experiment: MIC against Gram-negative bacteria: Aeromonas hydrophila; conditions: for MIC / MIC (μg/mL) A. hydrophila: A. hydrophila
In short: as §1

Citrobacter diversus = experiment: MIC against Gram-negative bacteria: Citrobacter diversus; conditions: for MIC / MIC (μg/mL) C. diversus: C. diversus
In short: as §1

Moraxella catarrhalis = experiment: MIC against Gram-negative bacteria: Moraxella catarrhalis; conditions: for MIC / MIC (μg/mL) M. catarrhalis: M. catarrhalis
In short: as §1

Proteus mirabilis = experiment: MIC against Gram-negative bacteria: Proteus mirabilis; conditions: for MIC / MIC (μg/mL) P. mirabilis: P. mirabilis
In short: as §1

Proteus vulgaris = experiment: MIC against Gram-negative bacteria: Proteus vulgaris; conditions: for MIC / MIC (μg/mL) P. vulgaris: P. vulgaris
In short: as §1

Serratia marcescens = experiment: MIC against Gram-negative bacteria: Serratia marcescens; conditions: for MIC / MIC (μg/mL) S. marcescens: S. marcescens
In short: as §1

[1] = 96-well plate, 5×10^5 CFU/mL, 37° C., 10 h
[2] = 10 h cultivation at 37° C., 5×10^5 CFU/mL
[3] = 10 h cultivation at 37° C., 5×10^5 CFU/mL, two-fold serial dilution

PRT687 (DVDECRNRSFCGAHAVCQNLPGSFQCLCDQGYEGARDGRHCV; listed as Homo sapiens)
50 µg/mL: MIC (E. coli DH5α) | MIC P. aeruginosa (Pseudomonas aeruginosa; [1]) | MIC C. diversus (Citrobacter diversus; [1]) | MIC S. marcescens (Serratia marcescens; [1])
25 µg/mL: MIC E. coli BL21 (E. coli BL21; [1]) | MIC E. cloacae (Enterobacter cloacae; [1]) | MIC A. hydrophila (Aeromonas hydrophila; [1]) | MIC M. catarrhalis (Moraxella catarrhalis; [1]) | MIC P. vulgaris (Proteus vulgaris; [1])
12.5 µg/mL: MIC K. pneumonia (Klebsiella pneumonia; [1]) | MIC P. mirabilis (Proteus mirabilis; [1])

PRT303 (DMDECKEPDVCKHGQCINTDGSYRCECPFGYILAGNECV; listed as Homo sapiens)
50 µg/mL: MIC (E. coli DH5α) | MIC (Enterobacter cloacae; [2]) | MIC (Citrobacter diversus; [2]) | MIC (Proteus mirabilis; [2]) | MIC (Serratia marcescens; [2])
12.5 µg/mL: MIC (Pseudomonas aeruginosa; [2]) | MIC (Aeromonas hydrophila; [2]) | MIC (Moraxella catarrhalis; [2])
100 µg/mL: MIC (Proteus vulgaris; [2])
25 µg/mL: MIC (E. coli BL21; [2]) | MIC (Klebsiella pneumonia; [2])

PRT228 (DIDECSQSPQPCGPNSSCKNLSGRYKCSCLDGFSSPTGNDWVPGKPGNFSCT; listed as Homo sapiens)
25 µg/mL: MIC (E. coli DH5α) | MIC (μg/mL) P. aeruginosa (Pseudomonas aeruginosa; [2]) | MIC (μg/mL) E. cloacae (Enterobacter cloacae; [2]) | MIC (μg/mL) C. diversus (Citrobacter diversus; [2]) | MIC (μg/mL) P. mirabilis (Proteus mirabilis; [2]) | MIC (μg/mL) S. marcescens (Serratia marcescens; [2])
12.5 µg/mL: MIC (μg/mL) E. coli BL21 (E. coli BL21; [2]) | MIC (μg/mL) A. hydrophila (Aeromonas hydrophila; [2]) | MIC (μg/mL) P. vulgaris (Proteus vulgaris; [2])
50 µg/mL: MIC (μg/mL) K. pneumonia (Klebsiella pneumonia; [2]) | MIC (μg/mL) M. catarrhalis (Moraxella catarrhalis; [2])

PRT959 (DVNECLSGPCRNQATCLDRIGQFTCICMAGFTGTYCE; listed as Homo sapiens)
12.5 µg/mL: MIC (Klebsiella pneumonia; 10 h cultivation at 37° C.) | MIC (Citrobacter diversus; 10 h cultivation at 37° C.) | MIC (Proteus mirabilis; 10 h cultivation at 37° C.)
25 µg/mL: MIC (E. coli DH5α) | MIC (Pseudomonas aeruginosa; 10 h cultivation at 37° C.) | MIC (Enterobacter cloacae; 10 h cultivation at 37° C.) | MIC (Proteus vulgaris; 10 h cultivation at 37° C.)
50 µg/mL: MIC (E. coli BL21; 10 h cultivation at 37° C.) | MIC (Aeromonas hydrophila; 10 h cultivation at 37° C.) | MIC (Moraxella catarrhalis; 10 h cultivation at 37° C.) | MIC (Serratia marcescens; 10 h cultivation at 37° C.)

PRT852 (SWGQCQPVCQPRCKHGECIGPNKCKCHPGYAGKTCN; listed as Homo sapiens)
25 µg/mL: MIC (μg/mL) E. coli BL21 (E. coli BL21; [2]) | MIC (μg/mL) K. pneumonia (Klebsiella pneumonia; [2])
12.5 µg/mL: MIC (E. coli DH5α) | MIC (μg/mL) P. aeruginosa (Pseudomonas aeruginosa; [2]) | MIC (μg/mL) A. hydrophila (Aeromonas hydrophila; [2]) | MIC (μg/mL) M. catarrhalis (Moraxella catarrhalis; [2]) | MIC (μg/mL) P. vulgaris (Proteus vulgaris; [2])
50 µg/mL: MIC (μg/mL) E. cloacae (Enterobacter cloacae; [2]) | MIC (μg/mL) C. diversus (Citrobacter diversus; [2]) | MIC (μg/mL) P. mirabilis (Proteus mirabilis; [2]) | MIC (μg/mL) S. marcescens (Serratia marcescens; [2])

PRT970 (DVDECAGPAPCGPHGICTNLAGSFSCTCHGGYTGPSCD; listed as Homo sapiens)
25 µg/mL: MIC (E. coli BL21; 10 h cultivation at 37° C.) | MIC (Klebsiella pneumonia; 10 h cultivation at 37° C.) | MIC (Citrobacter diversus; 10 h cultivation at 37° C.) | MIC (Proteus mirabilis; 10 h cultivation at 37° C.) | MIC (Serratia marcescens; 10 h cultivation at 37° C.)
12.5 µg/mL: MIC (Pseudomonas aeruginosa; 10 h cultivation at 37° C.) | MIC (Aeromonas hydrophila; 10 h cultivation at 37° C.) | MIC (Proteus vulgaris; 10 h cultivation at 37° C.)
50 µg/mL: MIC (E. coli DH5α) | MIC (Enterobacter cloacae; 10 h cultivation at 37° C.) | MIC (Moraxella catarrhalis; 10 h cultivation at 37° C.)

PRT150 (NINECLSNPCLNGGTCVDGVDSFSCECTRLWTGALCQ; listed as Homo sapiens)
12.5 µg/mL: MIC (μg/mL) E. coli BL21 (E. coli BL21; [2]) | MIC (μg/mL) E. cloacae (Enterobacter cloacae; [2]) | MIC (μg/mL) M. catarrhalis (Moraxella catarrhalis; [2])
25 µg/mL: MIC (E. coli DH5α) | MIC (μg/mL) P. aeruginosa (Pseudomonas aeruginosa; [2]) | MIC (μg/mL) K. pneumonia (Klebsiella pneumonia; [2]) | MIC (μg/mL) C. diversus (Citrobacter diversus; [2]) | MIC (μg/mL) P. mirabilis (Proteus mirabilis; [2]) | MIC (μg/mL) P. vulgaris (Proteus vulgaris; [2])
50 µg/mL: MIC (μg/mL) A. hydrophila (Aeromonas hydrophila; [2]) | MIC (μg/mL) S. marcescens (Serratia marcescens; [2])

PRT1164 (DVNECLSNPCPSTAMCNNTQGSFICKCPVGYQLEKGICN; listed as Homo sapiens)
12.5 µg/mL: MIC (E. coli DH5α) | MIC E. coli BL21 (E. coli BL21; [3]) | MIC P. aeruginosa (Pseudomonas aeruginosa; [3]) | MIC K. pneumonia (Klebsiella pneumonia; [3]) | MIC E. cloacae (Enterobacter cloacae; [3]) | MIC C. diversus (Citrobacter diversus; [3]) | MIC S. marcescens (Serratia marcescens; [3])
50 µg/mL: MIC P. mirabilis (Proteus mirabilis; [3])
25 µg/mL: MIC A. hydrophila (Aeromonas hydrophila; [3]) | MIC M. catarrhalis (Moraxella catarrhalis; [3]) | MIC P. vulgaris (Proteus vulgaris; [3])

PRT550 (CDCTPCGTEACDPHSGHCLCKAGVTGRRCDRCQEGHFGFDGCGGCRP; listed as Homo sapiens)
12.5 µg/mL: MIC against E. coli BL21 (E. coli BL21; [1]) | MIC against K. pneumonia (Klebsiella pneumonia; [1]) | MIC against A. hydrophila (Aeromonas hydrophila; [1]) | MIC against M. catarrhalis (Moraxella catarrhalis; [1]) | MIC against P. vulgaris (Proteus vulgaris; [1])
25 µg/mL: MIC (E. coli DH5α) | MIC against P. aeruginosa (Pseudomonas aeruginosa; [1]) | MIC against E. cloacae (Enterobacter cloacae; [1]) | MIC against C. diversus (Citrobacter diversus; [1]) | MIC against P. mirabilis (Proteus mirabilis; [1]) | MIC against S. marcescens (Serratia marcescens; [1])
